Here are results for 31 molecules from article PMC9911399, “Two distinct binding modes provide the RNA-binding protein RbFox with extraordinary sequence specificity”.

Substitutions are numbered along the chain they refer to; changes in the protein carry UniProt numbers. The list shows a part of the results.

B1: GAGGGGA (DNA:RNA)
RNA: GGGAGACCGGAAUUCAGAUUGUCCGAGGGGAUUAAAUCCCGUCGUAGCCACCA
DNA 1: CAATCTGAATTCCGGTCTCCC
DNA 2: TGGTGGCTACGACGGGATT
B2: GCGCACA (DNA:RNA)
RNA: B1 RNA with A26C, G28C, G29A, G30C
DNA 1: CAATCTGAATTCCGGTCTCCC
DNA 2: TGGTGGCTACGACGGGATT
B3: GUGGCGU (DNA:RNA)
RNA: B1 RNA with A26U, G29C, A31U
DNA 1: CAATCTGAATTCCGGTCTCCC
DNA 2: TGGTGGCTACGACGGGATT
B4: UAAGCAA (DNA:RNA)
RNA: B1 RNA with G25U, G27A, G29C, G30A
DNA 1: CAATCTGAATTCCGGTCTCCC
DNA 2: TGGTGGCTACGACGGGATT
B5: UUUGUUA (DNA:RNA)
RNA: B1 RNA with G25U, A26U, G27U, G29U, G30U
DNA 1: CAATCTGAATTCCGGTCTCCC
DNA 2: TGGTGGCTACGACGGGATT
B6: GAGAUCG (DNA:RNA)
RNA: B1 RNA with G28A, G29U, G30C, A31G
DNA 1: CAATCTGAATTCCGGTCTCCC
DNA 2: TGGTGGCTACGACGGGATT
B7: AUCGCGA (DNA:RNA)
RNA: B1 RNA with G25A, A26U, G27C, G29C
DNA 1: CAATCTGAATTCCGGTCTCCC
DNA 2: TGGTGGCTACGACGGGATT
B8: AAUUGAU (DNA:RNA)
RNA: B1 RNA with G25A, G27U, G28U, G30A, A31U
DNA 1: CAATCTGAATTCCGGTCTCCC
DNA 2: TGGTGGCTACGACGGGATT
B9: UGUAAUG (DNA:RNA)
RNA: GGGAGACCGGAAUUCAGAUUGUCCUGUAAUGUUAAAUCCCGUCGUAGCCACCA
DNA 1: CAATCTGAATTCCGGTCTCCC
DNA 2: TGGTGGCTACGACGGGATT
B10: CGCACUA (DNA:RNA)
RNA: B9 RNA with U25C, U27C, A29C, G31A
DNA 1: CAATCTGAATTCCGGTCTCCC
DNA 2: TGGTGGCTACGACGGGATT
B11: AAUCGAC (DNA:RNA)
RNA: B1 RNA with G25A, G27U, G28C, G30A, A31C
DNA 1: CAATCTGAATTCCGGTCTCCC
DNA 2: TGGTGGCTACGACGGGATT
B12: UACAAGG (DNA:RNA)
RNA: B9 RNA with G26A, U27C, U30G
DNA 1: CAATCTGAATTCCGGTCTCCC
DNA 2: TGGTGGCTACGACGGGATT
B13: UCAGCGA (DNA:RNA)
RNA: B1 RNA with G25U, A26C, G27A, G29C
DNA 1: CAATCTGAATTCCGGTCTCCC
DNA 2: TGGTGGCTACGACGGGATT
B14: ACUUUGG (DNA:RNA)
RNA: B9 RNA with U25A, G26C, A28U, A29U, U30G
DNA 1: CAATCTGAATTCCGGTCTCCC
DNA 2: TGGTGGCTACGACGGGATT
B15: CGACCUA (DNA:RNA)
RNA: B9 RNA with U25C, U27A, A28C, A29C, G31A
DNA 1: CAATCTGAATTCCGGTCTCCC
DNA 2: TGGTGGCTACGACGGGATT
B16: UCCUGAG (DNA:RNA)
RNA: B9 RNA with G26C, U27C, A28U, A29G, U30A
DNA 1: CAATCTGAATTCCGGTCTCCC
DNA 2: TGGTGGCTACGACGGGATT
B17: ACAAAGA (DNA:RNA)
RNA: B1 RNA with G25A, A26C, G27A, G28A, G29A
DNA 1: CAATCTGAATTCCGGTCTCCC
DNA 2: TGGTGGCTACGACGGGATT
B18: GCGGCUA (DNA:RNA)
RNA: B1 RNA with A26C, G29C, G30U
DNA 1: CAATCTGAATTCCGGTCTCCC
DNA 2: TGGTGGCTACGACGGGATT
B19: CGCUACA (DNA:RNA)
RNA: B9 RNA with U25C, U27C, A28U, U30C, G31A
DNA 1: CAATCTGAATTCCGGTCTCCC
DNA 2: TGGTGGCTACGACGGGATT
B20: UAGGUCA (DNA:RNA)
RNA: B1 RNA with G25U, G29U, G30C
DNA 1: CAATCTGAATTCCGGTCTCCC
DNA 2: TGGTGGCTACGACGGGATT
B21: GGGAAGU (DNA:RNA)
RNA: B1 RNA with A26G, G28A, G29A, A31U
DNA 1: CAATCTGAATTCCGGTCTCCC
DNA 2: TGGTGGCTACGACGGGATT
B22: AGCGCAU (DNA:RNA)
RNA: B1 RNA with G25A, A26G, G27C, G29C, G30A, A31U
DNA 1: CAATCTGAATTCCGGTCTCCC
DNA 2: TGGTGGCTACGACGGGATT
B23: GCACUGA (DNA:RNA)
RNA: B1 RNA with A26C, G27A, G28C, G29U
DNA 1: CAATCTGAATTCCGGTCTCCC
DNA 2: TGGTGGCTACGACGGGATT
B24: UUAUCCG (DNA:RNA)
RNA: B9 RNA with G26U, U27A, A28U, A29C, U30C
DNA 1: CAATCTGAATTCCGGTCTCCC
DNA 2: TGGTGGCTACGACGGGATT
B25: AGUUGGA (DNA:RNA)
RNA: B1 RNA with G25A, A26G, G27U, G28U
DNA 1: CAATCTGAATTCCGGTCTCCC
DNA 2: TGGTGGCTACGACGGGATT
B26: AGUGAUU (DNA:RNA)
RNA: B9 RNA with U25A, A28G, G31U
DNA 1: CAATCTGAATTCCGGTCTCCC
DNA 2: TGGTGGCTACGACGGGATT
B27: UCGAUUU (DNA:RNA)
RNA: B9 RNA with G26C, U27G, A29U, G31U
DNA 1: CAATCTGAATTCCGGTCTCCC
DNA 2: TGGTGGCTACGACGGGATT
B28: CUGUGGG (DNA:RNA)
RNA: B1 RNA with G25C, A26U, G28U, A31G
DNA 1: CAATCTGAATTCCGGTCTCCC
DNA 2: TGGTGGCTACGACGGGATT
B29: CGACGUU (DNA:RNA)
RNA: B9 RNA with U25C, U27A, A28C, A29G, G31U
DNA 1: CAATCTGAATTCCGGTCTCCC
DNA 2: TGGTGGCTACGACGGGATT
B30: UCCGAAG (DNA:RNA)
RNA: B9 RNA with G26C, U27C, A28G, U30A
DNA 1: CAATCTGAATTCCGGTCTCCC
DNA 2: TGGTGGCTACGACGGGATT
B31: UCUUUAC (DNA:RNA)
RNA: B9 RNA with G26C, A28U, A29U, U30A, G31C
DNA 1: CAATCTGAATTCCGGTCTCCC
DNA 2: TGGTGGCTACGACGGGATT

This test deals with T1, RBFOX1 RRM RbFoxmut (Fox-RRM*) (Homo sapiens, UniProt Q9NWB1 109-208, R118D;E147R;N151S;E152T).
T1 sequence: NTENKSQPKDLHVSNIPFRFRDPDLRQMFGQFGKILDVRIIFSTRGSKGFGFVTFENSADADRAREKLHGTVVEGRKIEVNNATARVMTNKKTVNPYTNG
The test can be described thus: EMSA; HiTS-Eq, 1 nM pool, 10 min; buffer printed only for the single-RNA assays: 10 mM Tris pH 7.5, 150 mM NaCl, 3.4 mM EDTA, 0.001% NP-40, 30 C. To be noted: tags: His6 N-terminal (pET28a); label: 5' 32P. In short, it runs like this: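 These values rest on relative association constants, computed from read-count changes of each RNA species versus the control reaction and normalised to the cognate motif. Reads came from free RNA recovered by 8% native PAGE after purified RbFox RRM (wild type or mutant) at increasing concentrations was equilibrated for 10 min in 50 µL with 1 nM of a 5′-radiolabelled pool with 7 randomized nucleotides and DNA-annealed flanks.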
On the technique in general: In EMSA bound probe runs differently from free probe, usually more slowly.
As for B1, the binding signal was 0.0761 KA relative to UGCAUGU.
With B2 the figure was 0.093 KA relative to UGCAUGU; with B3, 0.157 KA relative to UGCAUGU; with B4, 0.0539 KA relative to UGCAUGU.
For B5, the binding signal was 0.15 KA relative to UGCAUGU.
As for B6, the binding signal is 0.19 KA relative to UGCAUGU.
Take B7: the binding signal was 0.0938 KA relative to UGCAUGU.
On to B8, for which the binding signal is 0.0682 KA relative to UGCAUGU.
On to B9, for which the binding signal is 0.381 KA relative to UGCAUGU.
As to B10, the binding signal was 0.125 KA relative to UGCAUGU.
For B11, the binding signal was 0.0553 KA relative to UGCAUGU.
As for B12, the binding signal was 0.0537 KA relative to UGCAUGU.
In the case of B13, the binding signal is 0.0872 KA relative to UGCAUGU.
In the case of B14, the binding signal was 0.109 KA relative to UGCAUGU.
As for B15, the binding signal is 0.0975 KA relative to UGCAUGU.
B16: the binding signal is 0.0899 KA relative to UGCAUGU.
For B17 the value was 0.107 KA relative to UGCAUGU.
Consider B18, for which the binding signal was 0.136 KA relative to UGCAUGU.
With B19, the binding signal is 0.0907 KA relative to UGCAUGU.
For B20 the value was 0.0827 KA relative to UGCAUGU.
Take B21: the binding signal was 0.095 KA relative to UGCAUGU.
Consider B22, for which the binding signal was 0.0962 KA relative to UGCAUGU.
Turning to B23, the binding signal is 0.0877 KA relative to UGCAUGU.
As for B24, the binding signal was 0.086 KA relative to UGCAUGU.
Consider B25, for which the binding signal is 0.0719 KA relative to UGCAUGU.
For B26, the binding signal was 0.102 KA relative to UGCAUGU.
Take B27: the binding signal is 0.0835 KA relative to UGCAUGU.
B28: the binding signal was 0.0801 KA relative to UGCAUGU.
As to B29, the binding signal was 0.0858 KA relative to UGCAUGU.
On to B30, for which the binding signal is 0.0694 KA relative to UGCAUGU.
For B31, the binding signal was 0.0821 KA relative to UGCAUGU.
